According to PMC12040169 (PLOS Biology, 2025):
The list shows a part of the results. Peptide text beside a SMILES is read from it. * marks the point of attachment. Bz = O=C(c1ccccc1)*

Each molecule was assayed on T1, C. trachomatis L2/434/Bu expressing GFP (CTL2-GFP). Conditions: total inclusion area; 28.5 h, 10 µM; inhibitor.
T1 construct: L2/434/Bu GFP intracellular growth in HeLa cells
Set-up: species or system HeLa; C. trachomatis total inclusion area by high-content imaging, normalised to DMSO
In short: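 Imaging read-out: GFP inclusions and Hoechst nuclei captured by high-content imaging after fixation. Inclusion area/number = chlamydial growth; nuclei count = host cell viability. MIC calculated per earlier method.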

| Structure (SMILES) | % of control remaining |
| --- | --- |
| OC(COCc1ccc2c(c1)OCO2)CN1CCN(Cc2ccccc2)CC1 (stereo not drawn) [CBK278249C] | 97.284 |
| O=C(NC1CC2CCC(C1)N2Cc1ccccc1)c1ccc(Cl)cc1 (stereo not drawn) [CBK120192] | 106.603 |
| c1csc(CNCCCN2CCOCC2)c1 [CBK278305C] | 128.164 |
| Cn1cnnc1SCc1nc(N)nc(Nc2ccccc2)n1 [CBK018022] | 93.171 |
| O=C(CCCOc1ccccc1)Nc1ccc(N2CCNCC2)nc1 [CBK028270T] | 76.121 |
| COc1cccc([C@H]2CN(C(=O)c3ccccc3)[C@@H]3CCN(Cc4ccccc4F)C[C@H]23)c1 [CBK285608] | 86.7457 |
| COc1ccc(C2=NNC(=O)c3cc4sccc4n3C2)cc1 [CBK284205] | 67.3666 |
| Cc1sc2ncn(CC(=O)NC3CCOc4ccccc43)c(=O)c2c1C (stereo not drawn) [CBK304562] | 40.4663 |
| O=c1cc(CN2CCCc3ccccc32)[nH]c(=O)[nH]1 [CBK138331] | 64.4779 |
| CC(C)Nc1nccnc1OC1CCNC1 (stereo not drawn) [CBK115279] | 96.9696 |
| CN1[C@@H](CCC(=O)Nc2ccccc2)CNC(=O)[C@@H]2[C@H]1CCN2C1CCOCC1 [CBK289029] | 101.373 |
| CN(C)CC1CN(C(=O)c2ccccc2F)Cc2ccccc2O1 (stereo not drawn) [CBK285188] | 86.2921 |
| CCCC(=O)Nc1ccc(-c2csc(CCN3CCOC3=O)n2)cc1 [CBK305687] | 110.793 |
| O=C(C1CCCO1)N1CCC(c2onc3c2CCCCC3)CC1 (stereo not drawn) [CBK284487] | 67.4358 |
| O=S1(=O)CCN(Cc2cnn(-c3cncnc3)n2)CC1 [CBK112878] | 112.197 |
| C=CCn1c(COc2cccc(Cl)c2)nnc1SCC(=O)O [CBK269389] | 90.9817 |
| C1=C(CCNCCc2ccccc2)c2ccccc2C12CCCC2 [CBK024723] | 3.156 |
| CCc1nc(-c2ccc(N(C)C)nc2)nn1C [CBK307381] | 36.0012 |
| Clc1ccc(Nc2cncc(-c3cccs3)n2)cc1 [CBK065805] | 95.3077 |
| CCOc1ccc(C(=O)Nc2ccc(-c3nc4ccccc4s3)cc2C)cc1[N+](=O)[O-] [CBK269005] | 89.9708 |
| Cc1cnc2c(N3CCCC3)nc(Cl)cn12 [CBK092250] | 87.6579 |

| Structure (SMILES) | % of control remaining |
| --- | --- |
| CCNc1nc2ccccn2c(=O)c1C=C1SC(=S)N(CCCC(=O)O)C1=O [CBK296757] | 104.864 |
| Cc1cccc(C)c1OCC(O)CNCCc1ccccc1 (stereo not drawn) [CBK003072] | 80.6179 |
| COc1ccc(-c2cc(C(=O)NCC(O)CO)cnc2-c2ccc(Cl)cc2)cn1 (stereo not drawn) [CBK036645] | 152.781 |
| C[C@H]1CC[C@H](C(=O)N2CCC[C@H]2C(=O)O)CC1 [CBK028320] | 45.0091 |
| CS(=O)(=O)N1CCN(c2ccccc2NC(=O)Cc2ccc(Cl)cc2)CC1 [CBK267605] | 112.571 |
| N=C(N)NCCCc1c[nH]c2ccccc12 [CBK012139G] | 58.172 |
| Cc1cccc(NC(=O)C2CC(=O)NC(Nc3nc4ccccc4s3)=N2)c1 (stereo not drawn) [CBK264362] | 96.6574 |
| O=C(NC(Cc1ccccc1)C(=O)N1CCCC1C(=O)O)c1ccccc1 (stereo not drawn) [CBK264058] (Bz-Phe-Pro-OH; configuration not given here) | 99.2343 |
| FC(F)(F)c1ccnc(Sc2nc[nH]n2)n1 [CBK093806] | 103.298 |
| CS(=O)(=O)c1ccc(CNC(=O)c2cc(-c3ccc(C(=O)N4CCOCC4)cc3)cnc2N)cc1 [CBK158599] | 110.983 |
| O=C(CCn1ccnc1)NCC1Cc2ccccc2O1 (stereo not drawn) [CBK283062] | 94.3922 |
| CCn1ncc(S(=O)(=O)N2CCC(c3cccc(Cc4ccccc4C)n3)CC2)c1C [CBK286116] | 77.817 |
| O=C(O)CCc1ccc(-c2ccc(F)cc2)n1-c1cc(Cl)ccc1Cl [CBK264754] | 93.2702 |
| Cc1ccc(-n2c(SCC(=O)NCc3ccccc3)nnc2-c2ccc(Cl)cc2)cc1C [CBK265909] | 142.442 |
| O=C1COc2ccccc2C/C=C/CC2(CCCN(C(=O)CN3CSCC3=O)C2)CN1 (stereo not drawn) [CBK292035] | 104.195 |
| O=C(NC1CC1)c1cnoc1-c1ccccc1 [CBK154935] | 106.182 |
| O=C1CN(C(=O)NCCOc2ccccc2)CCN1 [CBK155871] | 80.6227 |
| COCc1cc(CN2CCN(C)CC2)c(O)c2ncccc12 [CBK263546] | 73.5023 |
| O=C(CCc1nc2ccccc2nc1O)OCc1cccc([N+](=O)[O-])c1 [CBK266804] | 107.075 |
| S=C(Nc1ccc(Nc2ccccc2)cc1)N1CCN(C/C=C/c2ccccc2)CC1 [CBK266149] | 96.8463 |
| Cc1cc(C)c(S(=O)(=O)NC(CC(=O)O)c2ccccc2)cc1C (stereo not drawn) [CBK267081] | 120.597 |

| Structure (SMILES) | % of control remaining |
| --- | --- |
| COc1ccccc1-c1cc2c(=O)n(C)c(-c3ccc(CNC(C)C)cc3)cc2o1 [CBK051699C] | 39.2296 |
| COC(=O)c1sc(NC(=S)Nc2ccn(C)n2)c(C(=O)OC)c1C [CBK267078] | 128.5 |
| CCOc1ccc(S(=O)(=O)Nc2ccc(O)c(C(=O)O)c2)cc1 [CBK299810] | 99.1792 |
| Cc1[nH]c2ccccc2c1CCNC(=O)N(Cc1cnn(C)c1)C1CC1 [CBK306661] | 69.2932 |
| CC(=O)NCCOc1nc(N(C)C)nc(N2CCOCC2)n1 [CBK266651] | 126.335 |
| COc1ccc(N(CC(=O)Nc2cccnc2)S(=O)(=O)c2ccc(C)cc2)cc1 [CBK264033] | 100.345 |
| COc1ccc(C(=O)N2CCCN(Cc3ccc(C#N)cc3)CC2)cc1 [CBK305374] | 36.0747 |
| COCCOc1ccc(C(=O)N2CCN(c3ccccc3)CC2)cc1 [CBK304626] | 97.7593 |
| Cc1cccc(NC(=O)CN2C(=O)S/C(=C\c3cc(C)n(-c4ccc(N(C)C)cc4)c3C)C2=O)c1 [CBK264586] | 114.133 |
| Cn1c(=O)cc(NCCCCCC(=O)O)[nH]c1=O [CBK286574] | 98.1108 |
| CN(Cc1nccn1C)c1nccc(N2CCN[C@H]3CS(=O)(=O)C[C@H]32)n1 [CBK307394] | 76.8123 |
| CC1CC(=O)C2=C(C1)NN=C(c1cccc(C(F)(F)F)c1)C2 (stereo not drawn) [CBK020138] | 98.2888 |
| Cn1c(SCC(=O)c2ccc([N+](=O)[O-])cc2)nnc1-c1ccc(N)cc1 [CBK264843] | 78.013 |
| Cc1ncc([N+](=O)[O-])n1CCSc1nnc(SCc2ccccc2)s1 [CBK264751] | 107.66 |
| COC(=O)c1ccc2c(c1)C(=O)N(c1ccc(C(=O)OCC(C)C)cc1)C2=O [CBK156802] | 91.9641 |
| O=C(NC1Cc2ccccc2C1)c1nccc2ccccc12 [CBK200356] | 109.522 |
| O=C1NN=C(c2ccccc2)CC1c1c[nH]c2ccccc12 (stereo not drawn) [CBK288235] | 88.4159 |
| CC(=O)N1CCC(C(=O)NC(c2ccc3c(c2)OCO3)c2cccs2)CC1 (stereo not drawn) [CBK059881] | 108.39 |
| O=C(O)COc1ccccc1/C=N/n1c(S)nnc1-c1ccncc1 [CBK265253] | 119.145 |
| O=C1CC(c2cccnc2)=NN1c1ccc(Cl)cc1Cl [CBK067764] | 103.553 |
| CCn1cncc1CN(CCCn1ccnc1)Cc1ccc(C)s1 [CBK283104] | 88.9486 |

| Structure (SMILES) | % of control remaining |
| --- | --- |
| COCCNc1nc(-c2ccc3ccccc3c2)cn2ccnc12 [CBK066138] | 129.232 |
| Cn1cc(CN2CCNC(=O)C2c2ccccc2C(F)(F)F)cn1 (stereo not drawn) [CBK306407] | 62.4992 |
| O=C(NCCF)c1cn2cc(-c3cccs3)n(CC3CC3)c(=O)c2n1 [CBK307367] | 44.9513 |
| Cc1ccc(-c2ccc(N3CCN(C)CC3)nc2)cc1C [CBK036937] | 104.773 |
| Cc1nc2ccc(NC(=O)c3cccc(C(F)(F)F)c3)cc2nc1C [CBK270221] | 86.9042 |
| CCN1CCN(CC(=O)N/N=C/c2ccc(F)cc2)CC1 [CBK261615] | 86.6152 |
| O=C(c1ccccn1)N1C[C@@H]2OCC(=O)N(Cc3ccccc3)[C@@H]2C1 [CBK289698] | 93.3972 |
| CCCS(=O)(=O)NC1CCN(c2nc(C(F)(F)F)nc3ccsc23)CC1 [CBK304591] | 44.2966 |
| CC(=O)Nc1cccc(Oc2nccnc2-c2cnn(Cc3ccccc3)c2)c1 [CBK107096] | 104.218 |
| OCCNCc1cc(Br)ccc1OCc1ccc(F)cc1 [CBK266421C] | 102.143 |
| O=C(Nc1ccncc1)c1cc2cc(OC(F)(F)F)ccc2[nH]1 [CBK107369] | 106.602 |
| O=C(NCCC1SC(NC2CCCCCC2)=NC1=O)Nc1ccc(C(F)(F)F)cc1Cl (stereo not drawn) [CBK067682] | 114.902 |
| CC(C)c1cc(C(=O)NC2CCN(c3ncccc3C#N)CC2)n(C)n1 [CBK306975] | 58.4744 |
| Cc1c(C(=O)Nc2cccnc2)nnn1-c1cccc(C(F)(F)F)c1 [CBK107389] | 101.26 |
| Cn1nccc1C(=O)N1CCN(c2ncccn2)CC1 [CBK288240] | 113.582 |
| CC1CCCCN1CCCNc1cc(NS(=O)(=O)c2cn(C)cn2)cc2ccoc12 (stereo not drawn) [CBK067940C] | 48.3351 |
| C[C@@H](c1ccccc1)n1c(=O)[nH]c2ncc(-c3cccc4ncccc34)nc21 [CBK064394] | 84.2317 |
| CC1(C)CC(=O)C(=CNCCC(c2ccccc2)c2ccccc2)C(=O)C1 [CBK262057] | 87.6214 |
